Results: patent US20200040103A1

Experiments:
[1] = molecular target: recombinant human KLK5 (human) (UniProt Q9Y337); test: cell-based or functional assay
[2] = molecular target: recombinant human KLK5 (human) (UniProt Q9Y337); test: array SPR imaging (IBIS MX96), immobilized ligand, human KLK5 injected 0-300 nM, 25 C
[3] = molecular target: recombinant human KLK5 (human) (UniProt Q9Y337); test: Ki(app) assay: IC50 (Z-VPR-pNA) at 0.5-0.0625 nM KLK5 plotted against KLK5 concentration, y-intercept

Sequence of UniProt Q9Y337 (Q9Y337 67-293): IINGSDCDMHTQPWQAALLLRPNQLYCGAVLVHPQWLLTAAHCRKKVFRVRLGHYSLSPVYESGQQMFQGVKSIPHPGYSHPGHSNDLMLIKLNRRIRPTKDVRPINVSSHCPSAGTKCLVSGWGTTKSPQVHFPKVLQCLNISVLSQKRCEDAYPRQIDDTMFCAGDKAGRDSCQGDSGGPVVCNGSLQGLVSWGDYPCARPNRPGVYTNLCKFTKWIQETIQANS

B1: SPINK9.SRE.Fc (Fc fusion)
chain: IESAKQTKQMVDCSHYKKLPPGQQRFCHREYDPICGSDGKTYKNDCFFCSKVKKTDGTLKFVHFGKCGNSVT[gap - human IgG1 Fc]
[1]
  IC50, KLK5 direct activity assay (Boc-VPR-AMC): 1.23 nM
  IC50, KLK5 pro-KLK7 coupled assay: 2.07 nM
  IC50, pro-KLK1 LC/MS assay: 0.58 nM
  IC50, pro-KLK7 LC/MS assay: 1.13 nM
[2]
  koff: 0.00047 s⁻¹
[3]
  Ki: 1.28 nM
